The text below walks through data of PMC4336329 (PLoS ONE, 2015).

The campaign covered roughly 310,000 compounds. About 14,000 (4.5%) showed an effect of 50% or more. The effect is printed as a negative number. This is one part of the list.
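Also: peak tail current of the secondary pulse compared with the same well before compound.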

The target of the experiment is human ether-à-go-go-related gene (hERG) potassium channel (human, UniProt Q12809). As to the kind of experiment: primary screen, population patch clamp on CHO cells stably expressing hERG.
human ether-à-go-go-related gene (hERG) potassium channel, sequence (Q12809 whole entry, looked up): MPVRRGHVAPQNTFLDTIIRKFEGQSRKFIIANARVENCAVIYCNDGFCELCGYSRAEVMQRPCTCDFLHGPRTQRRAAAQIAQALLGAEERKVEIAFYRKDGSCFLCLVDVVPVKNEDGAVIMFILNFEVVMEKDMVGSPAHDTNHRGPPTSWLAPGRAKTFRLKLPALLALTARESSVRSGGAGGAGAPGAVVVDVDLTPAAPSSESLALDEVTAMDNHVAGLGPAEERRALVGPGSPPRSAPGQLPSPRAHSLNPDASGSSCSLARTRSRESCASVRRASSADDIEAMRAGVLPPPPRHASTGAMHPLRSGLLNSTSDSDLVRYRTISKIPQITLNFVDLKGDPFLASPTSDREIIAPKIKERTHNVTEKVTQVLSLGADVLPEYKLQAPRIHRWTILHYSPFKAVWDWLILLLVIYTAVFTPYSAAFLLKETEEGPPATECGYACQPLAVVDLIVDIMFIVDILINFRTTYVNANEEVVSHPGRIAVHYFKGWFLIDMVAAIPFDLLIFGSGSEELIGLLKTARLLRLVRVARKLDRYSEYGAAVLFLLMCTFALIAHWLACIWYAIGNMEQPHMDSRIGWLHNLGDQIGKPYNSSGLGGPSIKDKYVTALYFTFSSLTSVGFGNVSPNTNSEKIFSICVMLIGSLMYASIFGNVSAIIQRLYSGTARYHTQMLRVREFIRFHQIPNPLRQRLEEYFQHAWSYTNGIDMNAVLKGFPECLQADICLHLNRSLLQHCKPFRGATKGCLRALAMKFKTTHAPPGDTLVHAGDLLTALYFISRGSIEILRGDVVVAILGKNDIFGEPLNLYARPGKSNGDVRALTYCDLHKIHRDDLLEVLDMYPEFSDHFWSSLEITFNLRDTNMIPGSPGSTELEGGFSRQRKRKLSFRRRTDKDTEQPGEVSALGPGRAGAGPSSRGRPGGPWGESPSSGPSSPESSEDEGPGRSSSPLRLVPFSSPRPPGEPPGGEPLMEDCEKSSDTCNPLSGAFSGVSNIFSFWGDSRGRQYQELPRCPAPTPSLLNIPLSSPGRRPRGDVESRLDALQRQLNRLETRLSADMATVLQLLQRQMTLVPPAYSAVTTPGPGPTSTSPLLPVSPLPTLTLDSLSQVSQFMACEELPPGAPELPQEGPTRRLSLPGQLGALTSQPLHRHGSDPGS
Consider `Cc1cccc2c(N)c3c(nc12)N(C)CC3.O=C(O)C(=O)O`, for which the “hERG current change (%, negative = inhibition) at 10uM” value is -23.1%.
The figure for `COc1cc(/C=C2/N=C(c3ccccc3F)OC2=O)cc(Cl)c1OS(C)(=O)=O` is 10.3%; for `O=C(NN=C1CCN(Cc2ccccc2)CC1)c1cccc(S(=O)(=O)Nc2ccccc2Cl)c1` it is -4.72%; for `CCOc1ccc(S(=O)(=O)n2ccnc2C)cc1` it is 14.5%.
`CCn1c(Cc2ccccc2)n[nH]c1=S`: the “hERG current change (%, negative = inhibition) at 10uM” value amounted to 1.82%.
The figure for `Cc1ccc(-c2nnc(SC(C)C#N)n2N)cc1` (stereo not drawn) is 18.1%; for `C=CCN1C(=O)C(CC(=O)NCC)SC1=Nc1ccc(S(N)(=O)=O)cc1` (stereo not drawn) it is 17.1%.
With `Fc1ccc(CSc2ncnc3ccccc23)cc1` the figure was 10.6%.
With `CNC(=S)NCCc1ccc(OC)c(OC)c1` the figure was -1.19%.
Regarding `COc1ccccc1-c1cnn2c(NCc3ccccc3)cc(C)nc12`, the “hERG current change (%, negative = inhibition) at 10uM” value turned out to be 23.3%.
As to `COc1c(O)cccc1-c1nnn(CCC(=O)OCC(=O)c2ccccc2)n1`, the “hERG current change (%, negative = inhibition) at 10uM” value stood at 26.7%.
As to `COc1ccccc1N(CC(=O)NCCc1ccccc1)C(=O)CCC(=O)Nc1nccs1`, the “hERG current change (%, negative = inhibition) at 10uM” value is -1.5%.
As for `COc1ccc(C(=O)Nc2ccc(Cl)cc2C(=O)NCCO)cc1`, the “hERG current change (%, negative = inhibition) at 10uM” value is -53.8%.
The figure for `Cn1ccs/c1=N\S(=O)(=O)c1ccc(F)cc1` is 8.92%; for `COc1ccccc1CNS(=O)(=O)c1c(C(=O)N2CCCC2)c(C)n(C)c1C` it is 12.9%.
Consider `CC1CCN(S(=O)(=O)c2cccc(S(=O)(=O)N3CCCC3)c2)CC1`, for which the “hERG current change (%, negative = inhibition) at 10uM” value was -34.6%.
Regarding `Cc1cccc(N(C)C(=S)Oc2ccc3ccccc3c2)c1`, the “hERG current change (%, negative = inhibition) at 10uM” value is reported as 17.2%.
With `O=C(c1ccc2nc(N3CCCCC3)sc2c1)N1CCN(Cc2ccc3c(c2)OCO3)CC1` the figure was -22.9%.
With `FC(F)(F)c1cccc(N2CCN(C(=S)NCC3CCCO3)CC2)c1` (stereo not drawn) the figure was -1.81%.
The figure for `CC(C)(C)S(=O)(=O)c1cnc2c(-c3ccsc3)cnn2c1N` is 20.6%; for `Cc1ccc(N2C(=O)c3ccccc3C2Nc2ccc(S(=O)(=O)N3CCOCC3)cc2)nc1` (stereo not drawn) it is -11%.
In the case of `CCCCOc1ncnc2c1[nH]c1ccc(OCC)cc12`, the “hERG current change (%, negative = inhibition) at 10uM” value is on record as 18.7%.
Take `COC(=O)/C=C1/SC(=NC(=O)c2cccc([N+](=O)[O-])c2)NC1=O`: the “hERG current change (%, negative = inhibition) at 10uM” value stood at 18.7%.
The figure for `Cc1cc(C(=O)C[N+]2(C)CCOCC2)c(C)n1-c1ccc(Br)cc1.[Cl-]` is 20.6%; for `O=c1[nH][nH]c(-c2ccccc2)c1C=Nc1ccccc1` it is 7.71%.
On to `O=C(Nc1nc2cc3c(cc2s1)OCCO3)C1=COCCO1`, for which the “hERG current change (%, negative = inhibition) at 10uM” value is reported as 3.42%.
Regarding `O=C(c1ccco1)N1CCN(C(=O)C2CCN(S(=O)(=O)c3cccc4nsnc34)CC2)CC1`, the “hERG current change (%, negative = inhibition) at 10uM” value is on record as -15.2%.
With `O=C(N1CCOCC1)N1CCCN(C(=O)N2CCOCC2)CC1` the figure was 0.257%.
With `Cc1cc(C)cc(N(CC(=O)NC2CCCCC2)C(=O)c2csnn2)c1` the figure was 3.84%; with `CCCCNC(=O)C1CCCN1C(=O)Nc1ccccc1` (stereo not drawn), 0.343%; with `CS(=O)(=O)N(CC(=O)N1CCN(Cc2ccccc2)CC1)c1cccc([N+](=O)[O-])c1`, -75.5%.
In the case of `CCCn1cnc2cc(NCc3ccccn3)ccc21`, the “hERG current change (%, negative = inhibition) at 10uM” value is -18.8%.
In the case of `Cc1ccc(/C=N/N2CCN(Cc3ccc(C)cc3)CC2)cc1`, the “hERG current change (%, negative = inhibition) at 10uM” value amounted to 1.35%.
With `Cc1c(C)[n+](=O)c(-c2ccco2)c(C)n1[O-]` the figure was 12.2%.
With `Cn1c(SCCCC(=O)c2ccccc2)nnc1-c1ccncc1` the figure was -42.9%.
For `COc1ccc(-n2c(Cc3cccn3C)nnc2SCC(=O)NCc2ccco2)cc1`, the “hERG current change (%, negative = inhibition) at 10uM” value is on record as -12.9%.
The figure for `Cc1ccc(-n2nc3c(c2NC(=O)c2c(-c4ccccc4Cl)noc2C)CSC3)cc1` is 0.363%; for `CCOC(=O)[C@@H]1[C@H]2COc3cc(OC)ccc3[C@H]2N2C(=O)N(c3cccc(Cl)c3)C(=O)[C@@]12C` it is 2.93%.
The figure for `O=C(CSc1nc2ccccc2o1)c1ccc2c(c1)OCCO2` is -1.98%.
With `Cc1sc2ncnc(NCCCN3CCCC3=O)c2c1C`, the “hERG current change (%, negative = inhibition) at 10uM” value turned out to be 3.27%.
As to `CC1=N/C(=C\c2ccc3c(c2)OCO3)C(=O)N1c1ccc(C(=O)O)cc1`, the “hERG current change (%, negative = inhibition) at 10uM” value is reported as 7.19%.
The figure for `CCOc1cc(/C=N/O)cc(Cl)c1OC` is 0.707%.
The figure for `COc1ccc(NC(=S)NC(NC(=O)CCl)C(Cl)(Cl)Cl)c([N+](=O)[O-])c1` (stereo not drawn) is 17.2%.
The figure for `CCCCN(C(=O)c1ccccc1Br)C1CCS(=O)(=O)C1` (stereo not drawn) is -3.49%; for `CC(C)(C)SCCNS(=O)(=O)c1ccc(F)cc1` it is 6.24%.
For `Cn1nnnc1SCC(=O)NC(=O)Cc1ccccc1`, the “hERG current change (%, negative = inhibition) at 10uM” value worked out at 1.02%.
As to `Cc1ccc(S(=O)(=O)NC(CCc2ccccc2)CC(=O)C(C)(C)C)cc1` (stereo not drawn), the “hERG current change (%, negative = inhibition) at 10uM” value is listed as -0.463%.
The figure for `CN1CCN(c2ccc([N+](=O)[O-])cc2C(=O)Nc2ccccc2)CC1` is -71.1%.
As for `Oc1ccc(C[C@@H]2CNCCN2CC2CCCCC2)cc1`, the “hERG current change (%, negative = inhibition) at 10uM” value is listed as -2.48%.
The figure for `O=C(/C=C/c1ccco1)NCc1ccc(F)cc1` is 9.33%.
The figure for `COc1ccc(CN(C)C(=O)C(Cc2ccccc2)NC(=O)c2ccccc2)c(OC)c1` (stereo not drawn) is -13.5%.
Turning to `Cn1nccc1/C=C(/C#N)S(=O)(=O)c1ccccc1`, the “hERG current change (%, negative = inhibition) at 10uM” value stood at 8.05%.
In the case of `CC1(C)Cc2nc3[nH]c(=S)[nH]c(=O)c3cc2CO1`, the “hERG current change (%, negative = inhibition) at 10uM” value was 9.05%.
The figure for `Cc1nc(C(=O)Nc2cccc(Cl)c2)nn1-c1cc(OC(C)C)c(Cl)cc1Cl` is -5.08%.
For the compound `CCN(CC)CCCNC(=O)c1cc(Sc2nnc(C)s2)nc2ccccc12`, the “hERG current change (%, negative = inhibition) at 10uM” value was -40.4%.
The figure for `O=C(Cn1nnc(-c2ccncc2)n1)N(C1CCCCC1)C1CCCCC1` is -21.3%; for `COc1ccc(/C=C/C(=O)C(C)(C)C)cc1OC` it is -4.28%.
The figure for `Cc1c(C(=O)NCCCN2CCCC2=O)oc2ccc(S(=O)(=O)N3CCOCC3)cc12` is -3.55%; for `COCCN(C(=O)c1ccco1)c1nc(-c2ccccc2)cs1` it is 4.36%; for `CCNC(=O)O/N=C(\C)c1sc(-c2ccc(Cl)cc2)nc1C` it is -23.9%.
With `CCC1(C)Cc2nc3[nH]c(=S)n(-c4ccc(C)cc4)c(=O)c3cc2CO1` (stereo not drawn) the figure was -2.97%; with `Cc1ccc(-c2nnc(SCC(=O)N3c4ccccc4NC(=O)C3(C)C)n2N)cc1`, -13.4%.
Regarding `CCOC(=O)c1c(N)sc(C(=O)N2CCCCCC2)c1C`, the “hERG current change (%, negative = inhibition) at 10uM” value is on record as 2.28%.
The figure for `C=CCOCCN1C(=O)C2C(c3ccccc3)C=CC(c3ccccc3)C2C1=O` (stereo not drawn) is 4.32%.
With `O=C(NCCN1CCCCC1)c1ccc(=O)oc1` the figure was 2.97%.
With `COc1ccc(NC(=O)C(OC(=O)c2cnccn2)c2ccccc2)cc1Cl` (stereo not drawn) the figure was 24.7%; with `CCOc1cc(C2Nc3ccccc3NC3=C2C(=O)CC(C)(C)C3)ccc1O` (stereo not drawn), 12.7%.
As to `C=CCc1c(C)nc(C)nc1N/N=C/c1ccc(F)cc1`, the “hERG current change (%, negative = inhibition) at 10uM” value is reported as -30.9%.
The figure for `Cc1cc(-c2ccccc2)nc(N2CCN(c3ccccn3)CC2)n1` is 1.11%.
Consider `CCC(=O)Nc1sc(C(=O)Nc2ccccc2)c(C)c1C(=O)OC`, for which the “hERG current change (%, negative = inhibition) at 10uM” value is reported as -2.99%.
With `CCCCNCC#CCOc1cc(C)ccc1C(C)C.O=C(O)C(=O)O`, the “hERG current change (%, negative = inhibition) at 10uM” value came out at 13.4%.
For the compound `COc1ccc(/C=N/NC(=O)c2ccc(N)cc2)cc1Cn1cc([N+](=O)[O-])cn1`, the “hERG current change (%, negative = inhibition) at 10uM” value was -7.62%.
In the case of `CC(=O)c1ccc(C(=O)Nc2sc3c(c2C(N)=O)CCN(Cc2ccccc2)C3)cc1.Cl`, the “hERG current change (%, negative = inhibition) at 10uM” value was -35.3%.
The figure for `N=c1oc2ccccc2cc1C(=O)Nc1ccccc1` is 6.6%.
As to `O=C(CCl)N1c2ccccc2CCc2ccccc21`, the “hERG current change (%, negative = inhibition) at 10uM” value is given as 8.65%.
With `O=C(Nc1cccc(C(=O)O)c1)/C(=C/c1ccccc1)NC(=O)c1cccc(Br)c1` the figure was 4.3%; with `Cn1c(CN2CCN(C(=O)COc3ccccc3)CC2)nc2cc([N+](=O)[O-])ccc21`, -55.2%.
On to `CC(=O)c1cccc([N+](=O)[O-])c1`, for which the “hERG current change (%, negative = inhibition) at 10uM” value amounted to 17.7%.
For `Cc1ccc(N(C)S(=O)(=O)c2cccc(C(=O)Oc3ccc4c(C)cc(=O)oc4c3)c2)cc1`, the “hERG current change (%, negative = inhibition) at 10uM” value is on record as 19.7%.
`Cc1ccc(NC(=O)[C@H](C)NC(=O)C2CCN(C(=O)[C@@H](N)CC(C)C)CC2)cc1.Cl`: the “hERG current change (%, negative = inhibition) at 10uM” value stood at 7.29%.
Turning to `COC(=O)[C@H](CCSC)NC(=O)Cn1ccc(NC(=O)OCc2ccccc2)nc1=O`, the “hERG current change (%, negative = inhibition) at 10uM” value came to 14.6%.
With `COc1ccccc1-c1c(C)nn2c(N)c(-c3ccccc3)cnc12` the figure was -26.8%; with `CCC(CC)C(=O)c1c[nH]c(C(=O)NCc2cccnc2)c1`, 18.6%; with `CC(C)=C1C2CCC1C1C(=O)N(NC(=O)c3ccco3)C(=O)C21` (stereo not drawn), -4.72%.
In the case of `CCOc1ccc(NC(=O)Nc2nnc(CC)s2)cc1`, the “hERG current change (%, negative = inhibition) at 10uM” value is 11.1%.
In the case of `OC1CNCc2cc3c(cc21)OCCO3` (stereo not drawn), the “hERG current change (%, negative = inhibition) at 10uM” value is on record as -8.55%.
The figure for `COc1ccc(S(=O)(=O)Nc2ccc3c(c2)OCO3)cc1Cl` is -17.7%; for `O=C(Cc1ccc(Br)cc1)N1CCc2ccccc2C1` it is 18.9%; for `COc1cc(/C=N/NC(N)=O)c(Br)cc1OCC(=O)Nc1ccccc1C` it is -11.3%.
Turning to `Cc1ccc(C2NC(=O)NC(O)(C(F)(F)F)C2C(=O)c2ccccc2)o1` (stereo not drawn), the “hERG current change (%, negative = inhibition) at 10uM” value was -5.24%.
